Reference: publication PMC4336329 (PLoS ONE, 2015)
About 2,200 (0.71%) of roughly 310,000 compounds showed an effect of 50% or more. The effect is printed as a negative number. This is one part of the list.

molecular target: human ether-à-go-go-related gene (hERG) potassium channel (human, UniProt Q12809); assay: primary screen, population patch clamp on CHO cells stably expressing hERG
Sequence (Q12809 whole entry, looked up): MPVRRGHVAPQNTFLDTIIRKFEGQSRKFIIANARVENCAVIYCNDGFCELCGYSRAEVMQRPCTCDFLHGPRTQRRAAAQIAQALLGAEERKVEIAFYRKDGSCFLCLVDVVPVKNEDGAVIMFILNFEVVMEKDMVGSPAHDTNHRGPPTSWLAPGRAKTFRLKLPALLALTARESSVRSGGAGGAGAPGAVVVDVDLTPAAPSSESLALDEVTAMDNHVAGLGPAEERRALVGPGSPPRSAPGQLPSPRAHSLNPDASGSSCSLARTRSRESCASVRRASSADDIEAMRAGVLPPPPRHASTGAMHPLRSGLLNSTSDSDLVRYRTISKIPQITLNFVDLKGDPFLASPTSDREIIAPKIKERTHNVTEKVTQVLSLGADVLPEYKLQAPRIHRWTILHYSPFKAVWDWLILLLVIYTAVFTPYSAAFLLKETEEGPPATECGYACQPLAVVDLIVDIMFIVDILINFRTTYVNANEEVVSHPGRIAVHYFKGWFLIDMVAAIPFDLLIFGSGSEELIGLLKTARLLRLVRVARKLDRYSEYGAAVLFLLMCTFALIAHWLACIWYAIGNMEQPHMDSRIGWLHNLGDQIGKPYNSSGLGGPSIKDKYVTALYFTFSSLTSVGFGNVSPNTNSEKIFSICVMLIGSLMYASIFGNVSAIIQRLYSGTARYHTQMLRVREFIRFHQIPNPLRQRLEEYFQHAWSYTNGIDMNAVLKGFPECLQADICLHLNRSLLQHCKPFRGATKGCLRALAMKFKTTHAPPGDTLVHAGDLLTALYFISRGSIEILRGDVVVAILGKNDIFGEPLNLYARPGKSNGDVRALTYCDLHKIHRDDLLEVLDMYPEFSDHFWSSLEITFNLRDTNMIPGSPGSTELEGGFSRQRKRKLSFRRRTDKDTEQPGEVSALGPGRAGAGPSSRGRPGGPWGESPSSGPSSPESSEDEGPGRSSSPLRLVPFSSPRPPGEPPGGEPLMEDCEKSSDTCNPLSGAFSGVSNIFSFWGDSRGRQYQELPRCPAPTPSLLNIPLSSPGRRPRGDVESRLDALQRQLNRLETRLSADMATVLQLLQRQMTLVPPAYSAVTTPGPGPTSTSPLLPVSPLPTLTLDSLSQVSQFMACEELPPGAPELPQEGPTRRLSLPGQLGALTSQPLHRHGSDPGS

SMILES | hERG current change (%, negative = inhibition) at 1uM
S=C(Nc1cccnc1)Nc1cccc2cnccc12 | 12.6%
CCc1n[nH]c(=S)n1/N=C/c1c(O)ccc2ccccc12 | 11.6%
Cc1cccc(Cn2ncc(Cl)c(Cl)c2=O)c1 | 13.4%
CC(C)C(=O)NC(c1ccc(Cl)cc1Cl)c1ccc2cccnc2c1O (stereo not shown) | 16.3%
NC1=NC(=O)C2(COC(c3ccccc3Cl)OC2)S1 (stereo not shown) | 13.2%
COc1cc(CC(=O)NCC2COc3ccccc3O2)cc(OC)c1OC (stereo not shown) | 8.78%
O=C(NCc1ccc2c(c1)OCO2)C1CCN(S(=O)(=O)c2cccs2)CC1 | 13.9%
CCC(C)NC(C(=O)Nc1ccc(Cl)c([N+](=O)[O-])c1)c1ccccc1.O=C(O)C(=O)O (stereo not shown) | 10.3%
O=S(=O)(c1ccccc1Cl)N1CCC(Cc2ccccc2)CC1 | 13.5%
COc1ccc(OC)c(Cc2nnc(CCC(=O)N3CCCCC3)o2)c1 | 6.27%
Nc1ccc(SCc2cccnc2)cc1 | 14.6%
C=CCNC(=O)c1ccc(CN2CCC(Cc3ccccc3)CC2)cc1 | -33.2%
CC1(C)C(=O)OC(C(=O)c2ccccc2)C(C)(C)C1=O (stereo not shown) | -1.38%
[O-][n+]1onc2c3ccnnc3ccc21 | 14.5%
CC(=O)Nc1cc(Cl)c(N=Cc2ccc(O)cc2O)cc1Cl | 0.663%
O=C(O)C1CCC(=O)N1Cc1ccc(F)cc1 (stereo not shown) | 5.96%
O=c1[nH]c(Cc2ccccc2)nc2scc(-c3ccccc3)c12 | 15.5%
CCOC(=O)c1cnn(CCOC(=O)c2ccc(OC)cc2)c1NC(=O)c1ccc(OC)cc1 | -2.54%
O=Cc1c(NCc2ccc(Cl)cc2)c2ccccc2[nH]c1=O | -0.961%
O=C1c2ccccc2S(=O)(=O)c2cc(N3CCc4ccccc4C3)ccc21 | 4.99%
CCC(=O)Nc1ccc(-n2nnnc2SCC(=O)NNC(=O)c2ccco2)cc1 | 14.5%
CCOC(=O)C1=C(C)N(c2ccccc2)C(=O)/C1=C\c1ccco1 | 6.63%
COc1ccc(OCCn2cc(/C=N/NC(=O)c3ccncc3)c3ccccc32)cc1 | -3.83%
CSc1ccccc1NC(=O)CN(C)CC(=O)Nc1ccc(Cl)cc1[N+](=O)[O-] | 4.26%
Cc1ccc(S(=O)(=O)C(C#N)c2nc3ccccc3nc2N2CCN(C)CC2)cc1 (stereo not shown) | 4.94%
